This passage reports IC50 results from US20240262848A1, “HETEROCYCLIC COMPOUNDS, COMPOSITIONS THEREOF, AND METHODS OF TREATMENT THEREWITH” (BeiGene, Ltd., priority 2022, published 2024).

The target of assay [1] is GST-tagged GDP-loaded WT KRAS (amino acids 1-169) (Homo sapiens, UniProt P01116). The assay can be described thus: KRAS WT probe displacement assay (run with the KRAS G12V assay, TR-FRET). To be noted: Table 4; WT KRAS 3 nM, biotinylated probe 1 60 nM. Format: binding.
Assay [2] addresses GST-tagged GDP-loaded WT KRAS (amino acids 1-188) (Homo sapiens, UniProt P01116). The assay can be described thus: KRAS WT probe displacement assay (run with the KRAS G12D assay, TR-FRET). Type of assay: binding. The note with it: Table 5; WT KRAS 3 nM, biotinylated probe 1 60 nM. In general terms: Time-resolved FRET reads energy transfer from a long-lived donor to a nearby acceptor.

What is called IC50 is the concentration at which inhibition is half-maximal. A low value points to higher potency.

With `CN1c2nc(OC[C@@]34CCCN3C[C@H](F)C4)nc3c(F)c(-c4cc(N)cc(Cl)c4C(F)(F)F)nc(c23)OCCC12CC2` [Example 31, 3-chloro-5-(4-fluoro-2-(((2R,7aS)-2-fluorotetrahydro-1H-pyrrolizin-7a(5H)-yl)methoxy)-11-methyl-8,9-dihydro-11H-7-oxa-1,3,6,11-tetraazaspiro[cycloocta[de]naphthalene-10,1′-cyclopropan]-1(11a), 2,3a, 4,6-pentaen-5-yl)-4 (trifluoromethyl)aniline], the IC50 in assay [1] and in assay [2] was 0.8 nM in each case.

Take `C[C@@H]1C[C@H](C)Oc2nc(-c3cc(N)cc(Cl)c3C(F)(F)F)c(F)c3nc(OC[C@@]45CCCN4C[C@H](F)C5)nc(c23)N1C` [Example 34, 3-chloro-5-((8S,10R)-4-fluoro-2-(((2R,7aS)-2-fluorotetrahydro-1H-pyrrolizin-7a(5H)-yl)methoxy)-8,10,11-trimethyl-8,9,10,11-tetrahydro-7-oxa-1,3,6,11-tetraazacycloocta[de]naphthalen-5-yl)-4-(trifluoromethyl)aniline]: the IC50 in assay [1] and in assay [2] was 1 nM throughout.

As to `CCN1c2nc(OC[C@@]34CCCN3C[C@H](F)C4)nc3c(F)c(-c4cc(N)cc(Cl)c4C(F)(F)F)nc(c23)OCCC12COC2` [Example 35, 3-chloro-5-(11-ethyl-4-fluoro-2-(((2R,7aS)-2-fluorotetrahydro-1H-pyrrolizin-7a(5H)-yl)methoxy)-8,9-dihydro-11H-7-oxa-1,3,6,11-tetraazaspiro[cycloocta[de]naphthalene-10,3′-oxetan]-1(11a), 2,3a, 3a^1(6a), 5-pentaen-5-yl)-4-(trifluoromethyl)aniline], the IC50 in assay [1] and in assay [2] was 0.76 nM throughout.

As for `CN1c2nc(OC[C@@]34CCCN3C[C@H](F)C4)nc3c(F)c(-c4cc(N)cc(Cl)c4C(F)(F)F)nc(c23)O[C@H]2COCC[C@@H]21` [Example 49, 3-chloro-5-((7aR,11aS)-4-fluoro-2-(((2R,7aS)-2-fluorotetrahydro-1H-pyrrolizin-7a(5H)-yl)methoxy)-12-methyl-7a, 8,10,11,11a, 12-hexahydro-7,9-dioxa-1,3,6,12-tetraazapleiaden-5-yl)-4-(trifluoromethyl)aniline], the IC50 in assay [1] and in assay [2] was 0.57 nM throughout.

Take `CN1c2nc(OC[C@@]34CCCN3C[C@H](F)C4)nc3c(F)c(-c4cc(N)cc(Cl)c4C(F)(F)F)nc(c23)O[C@@H]2CCOC[C@H]21` [Example 51, 3-chloro-5-((7aR,11aR)-4-fluoro-2-(((2R,7aS)-2-fluorotetrahydro-1H-pyrrolizin-7a(5H)-yl)methoxy)-12-methyl-7a, 8,11a, 12-tetrahydro-9H, 11H-7,10-dioxa-1,3,6,12-tetraazapleiaden-5-yl)-4-(trifluoromethyl)aniline]: the IC50 in assay [1] and in assay [2] was 0.67 nM throughout.

On to `Cc1cc(N)cc(-c2nc3c4c(nc(OC[C@@]56CCCN5C[C@H](F)C6)nc4c2F)N(C)[C@@H]2COCC[C@H]2O3)c1C(F)(F)F` [Example 61, 3-((7aR,11aR)-4-fluoro-2-(((2R,7aS)-2-fluorotetrahydro-1H-pyrrolizin-7a(5H)-yl)methoxy)-12-methyl-7a, 8,11a, 12-tetrahydro-9H, 11H-7,10-dioxa-1,3,6,12-tetraazapleiaden-5-yl)-5-methyl-4-(trifluoromethyl)aniline], for which the IC50 in assay [1] and in assay [2] was 0.81 nM in each case.

`C=C1CN2CCC[C@@]2(COc2nc3c4c(nc(-c5cc(N)cc(Cl)c5C(F)(F)F)c(F)c4n2)O[C@H]2COCC[C@@H]2N3C)C1` [Example 62, 3-chloro-5-((7aR,11aS)-4-fluoro-12-methyl-2-(((S)-2-methylenetetrahydro-1H-pyrrolizin-7a(5H)-yl)methoxy)-7a, 8,10,11,11a, 12-hexahydro-7,9-dioxa-1,3,6,12-tetraazapleiaden-5-yl)-4-(trifluoromethyl)aniline]: the IC50 in assay [1] and in assay [2] was 0.54 nM each time.
